# From the BET-seq Pho4 binding data (Le et al. 2018)
# The other results are listed elsewhere or left out. Values were computed here from the reads of four pooled replicates and scatter widely.
# Molecular target: T1, Pho4 (S. cerevisiae) (UniProt P07270)
# T1 sequence: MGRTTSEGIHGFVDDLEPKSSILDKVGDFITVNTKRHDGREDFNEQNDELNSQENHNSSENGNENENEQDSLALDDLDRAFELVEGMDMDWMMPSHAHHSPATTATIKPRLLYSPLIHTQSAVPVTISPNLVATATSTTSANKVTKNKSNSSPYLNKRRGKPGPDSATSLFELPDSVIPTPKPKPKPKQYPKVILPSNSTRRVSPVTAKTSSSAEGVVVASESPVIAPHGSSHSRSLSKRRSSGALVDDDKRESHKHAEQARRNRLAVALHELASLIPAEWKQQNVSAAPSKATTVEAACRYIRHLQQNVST
# Assay: relative binding free energy (BET-seq); higher = weaker binding
# Conditions: reference: library average
row,Sequence,relative binding free energy [kcal/mol]
1,TATTTCACGTGGCTAT,0.27
2,GTTATCACGTGTGGAC,0.27
3,GTTATCACGTGTTTGA,0.13
4,CTAGGCACGTGTGTTG,-0.14
5,ATTGACACGTGGCGTT,-0.11
6,ATAAACACGTGAGGGG,0.19
7,TTTTTCACGTGACTGA,0.31
8,GGGGGCACGTGGCTTC,-0.16
9,TATTGCACGTGTCTAG,0.06
10,TGAGTCACGTGGGGGC,0.09
11,AGGGGCACGTGGAAGG,-0.11
12,TAGTACACGTGTTTGA,0.1
13,TGAGTCACGTGGGGTC,-0.1
14,TGGTCCACGTGAGGTG,0.2
15,GTAGGCACGTGTGTGC,-0.03
16,GGTTTCACGTGGACTG,0.33
17,ATGTACACGTGGTGAA,0.03
18,AGGAACACGTGTAGCG,0.27
19,GGATCCACGTGTGTTA,0.1
20,TATGGCACGTGAAGAG,0.28
21,ATCTGCACGTGTGTAT,0.01
22,GTGGCCACGTGTATTT,0.03
23,AAAATCACGTGGTGAT,0.06

row,Sequence,relative binding free energy [kcal/mol]
1,TTGGACACGTGAGAGT,0.3
2,TCTTGCACGTGGTTCA,-0.02
3,GATCTCACGTGGGGCG,0.13
4,TGGACCACGTGGTGGG,-0.14
5,GTGTCCACGTGAGGAT,0.36
6,TTACGCACGTGGTATT,-0.17
7,CGGTACACGTGTGTGT,0.06
8,GGAACCACGTGGGGTG,-0.18
9,GATACCACGTGGTGGT,-0.04
10,TTAGCCACGTGAGGTA,0.22
11,TCGGCCACGTGGTAGG,-0.11
12,TATTACACGTGACTGG,0.28
13,TGGTGCACGTGTGTGC,-0.08
14,GGGGACACGTGGGACG,0
15,GTGTGCACGTGTAAGA,0.08
16,TAGGGCACGTGTCTAT,-0.12
17,GTTTTCACGTGCAGAG,0.4
18,ATTTCCACGTGGTGTG,0.04
19,GAACGCACGTGTGTGG,0.05
20,GCTGTCACGTGGGTGT,-0.04
21,TTAGACACGTGTGAGG,0.02
22,GATGACACGTGGATAG,0.11
23,GTTGTCACGTGAGGCT,0.32

row,Sequence,relative binding free energy [kcal/mol]
1,TGTATCACGTGGGCGG,0.07
2,TATTGCACGTGTATAG,0.01
3,TTTCTCACGTGTTTCT,0.27
4,GAGTACACGTGCTGGG,-0.01
5,GTTCTCACGTGTTGTA,0.15
6,TAAGTCACGTGTTTCT,0.17
7,AGACTCACGTGGGGTT,0.06
8,TGGGTCACGTGTGAGT,0.21
9,AGGGTCACGTGACGGC,0.15
10,ATAGACACGTGTGATT,0.11
11,TATGGCACGTGGCATG,-0.24
12,GTTGGCACGTGGACAG,-0.09
13,TTGTTCACGTGGTCTA,0.13
14,AAGGGCACGTGTGTGT,-0.1
15,TATGACACGTGTGCTG,-0.01
16,AGCGGCACGTGTTAGG,-0.03
17,ATATTCACGTGGATAG,0.18
18,TATGCCACGTGTGGTC,0.04
19,AAGTTCACGTGATATT,0.34
20,TGTAGCACGTGGTCAG,-0.22
21,GATGTCACGTGATTTG,0.27
22,GTGAGCACGTGCTAGT,-0.21
23,TGATTCACGTGGCATT,0.22

row,Sequence,relative binding free energy [kcal/mol]
1,TCATTCACGTGGAGTT,0.26
2,CGTGACACGTGGATGT,-0.15
3,TTTTTCACGTGGGGAT,0.24
4,TTGATCACGTGGAGGC,0.27
5,TTCATCACGTGGGCGG,0.08
6,CATAACACGTGAGTGG,0.25
7,TATATCACGTGGTACT,0.07
8,CATGGCACGTGCGTTG,-0.09
9,AGGGGCACGTGCGGGG,-0.23
10,GTCGGCACGTGTTGTA,-0.03
11,CTTGTCACGTGCATGG,0.09
12,GAGTACACGTGATAGT,0.25
13,ATGGGCACGTGAACGT,0.02
14,TCGTGCACGTGTTGAA,0.03
15,TACATCACGTGGGGCT,-0.05
16,GAGTACACGTGAATGG,0.37
17,TTTGTCACGTGGGGTG,-0.08
18,TGGGGCACGTGTCGCT,-0.01
19,AAATTCACGTGTGAAT,0.15
20,GTTGTCACGTGGGGGG,-0.01
21,TAGGTCACGTGAAGAT,0.25
22,TCGTGCACGTGGATAT,-0.04
23,GATAGCACGTGAGAGT,0.2

row,Sequence,relative binding free energy [kcal/mol]
1,TTTATCACGTGTTTGA,0.12
2,GTTATCACGTGATATT,0.3
3,GGGAGCACGTGTGGAA,0.03
4,CGGTGCACGTGCAGTG,-0.2
5,TTTGGCACGTGGCGTG,-0.14
6,TATAGCACGTGGGTCG,-0.32
7,AAAGGCACGTGAGGCG,0.08
8,AGTGACACGTGCGTAG,-0.1
9,GGGTGCACGTGTGACA,-0.06
10,ATTGTCACGTGTAGAG,0
11,GCGTTCACGTGGCTGT,0.21
12,GAGTGCACGTGGATTG,0.05
13,TAGCGCACGTGTTGGA,-0.06
14,TTGGGCACGTGAAGGG,0.22
15,ATAATCACGTGGTAAG,0.08
16,TGGGGCACGTGCTGTA,-0.2
17,TAGGTCACGTGGACGG,0.17
18,ACGTTCACGTGGGTGC,0.15
19,AGTCACACGTGTTTTA,0.07
20,GTGATCACGTGTTAGT,0.06
21,GGGATCACGTGTCTGG,0.02
22,TGCGGCACGTGGGTCA,-0.19
23,CATGTCACGTGATGGG,0.24
